Among all 52,000 compounds or so, about 1,700 (3.3%) were called active. No stated cut-off is given here; in the data, active means survival mostly below about 52% (no sharp cut-off); inactive means mostly above about 56%. This is one part of the list.

This experiment deals with Wild type. In words: growth inhibition of S. aureus wild type versus tarO mutant, primary screen, teichoic acid synthesis inhibitors, RN4220, OD600 (AID 463173). The settings on record: S. aureus RN4220 wild type/DeltatarO growth, OD600, 18 h, stronger effect = lower value, screened at 18.75 µg/mL (by protocol).
For `COc1ccc(OC)c(-c2noc(N3CCN(c4cc(C)ccc4C)CC3)n2)c1`, the survival was inactive: 76%.

Turning to `CCOC(=O)c1cc(OC(=O)c2ccc(OC)cc2)n(-c2ccccc2)n1`, the survival was inactive: 74%.

As to `COc1ccc(NC(=O)C(Cc2ccccc2)NS(=O)(=O)c2ccc3c(c2)CCN3C(C)=O)cc1` (centres undefined), the survival is inactive: 79%.

For `Cc1ccc(C)c(CNC(=O)c2ccc3c(c2)nc2n3CCC(C)C2)c1` (centres undefined), the survival is inactive: 90%.

As for `Cc1ccc(N(C)S(=O)(=O)c2nnc(NC(=O)CC(C)C)s2)cc1`, the survival was inactive: 87%.

With `COc1ccccc1-c1cc2nc(C)c(CCC(=O)NCCc3ccc(SC)cc3)c(C)n2n1`, the survival is inactive: 135%.

`CCCn1c(=N)c(C(=O)NCc2cccnc2)cc2c(=O)n3ccccc3nc21`: the survival was inactive: 73%.

For the compound `Cc1ccc(Cn2nnc3c(=O)[nH]c(C(=O)NC(C)(C)C)nc32)cc1`, the survival was inactive: 119%.

Regarding `CCOC(=O)Cc1ccc(NC(=O)Nc2cc3c(cc2N2CCCCC2)n(C)c(=O)n3C)cc1`, the survival was inactive: 84%.

Consider `COc1ccc(-n2cc(C(=O)Nc3cc(F)ccc3F)c3ccccc3c2=O)cc1`, for which the survival was inactive: 78%.

Turning to `O=C(Nc1ccc(F)cc1F)c1ccc2c(c1)CCN2S(=O)(=O)c1ccc(Cl)cc1`, the survival was inactive: 81%.

With `CCOC(=O)c1cc2c(=O)n3ccccc3nc2n(C)c1=NC(=O)c1c(-c2ccccc2Cl)noc1C`, the survival is inactive: 147%.

On to `Cc1ccc(NC(=O)Cn2c(=O)ccc3cc(S(=O)(=O)N4CCC(C)CC4)ccc32)c(C)c1`, for which the survival is inactive: 69%.

`O=C(NCc1ccco1)Nc1c[nH]c2ccc(F)cc2c1=O`: the survival is inactive: 113%.

Consider `CC1=Nc2ccc(N)cc2C1(C)C`, for which the survival was inactive: 99%.

For `CCOc1ccc(CNC(=O)Cn2ccc3cc(S(=O)(=O)N4CCCCCC4)ccc32)cc1`, the survival was inactive: 121%.

Take `CCCCOC(=O)c1ccc(NC(=O)CC2NCCNC2=O)cc1` (centres undefined): the survival is inactive: 71%.

Consider `COc1ccc2oc(=O)c(C(=O)Nc3cccc(C(=O)O)c3)cc2c1`, for which the survival is inactive: 68%.

Turning to `COc1cccc(CNC(=O)C2CCN(Cc3cc4ccccc4n3Cc3ccc(C)cc3)CC2)c1`, the survival was inactive: 92%.

`COc1cc(-c2cc3n(C)c(C)c(CCC(=O)NCc4ccccc4)c(=O)n3n2)cc(OC)c1OC`: the survival is inactive: 81%.

Turning to `Cc1nc2c(-c3ccccc3)c(C)nn2c(C)c1CCC(=O)NCc1ccc(Cl)cc1`, the survival is inactive: 91%.

In the case of `COc1ccc(CCNS(=O)(=O)c2ccc(N3CCCCS3(=O)=O)cc2)cc1OC`, the survival was inactive: 68%.

Regarding `CC(C(=O)c1ccccc1)C1(O)C(=O)Nc2ccccc21` (centres undefined), the survival was inactive: 88%.

As for `Cc1ccc(Cn2c(CCCNC(=O)c3ccco3)nc3ccccc32)cc1`, the survival is inactive: 95%.

Turning to `Cc1ccc(CNC(=O)CCCN2C(=O)CCn3nc(-c4cn(C)c5ccccc45)cc32)cc1`, the survival is inactive: 76%.

Take `CCOC(=O)c1ccc(NC(=O)c2nc(SC(C)C)ncc2Cl)cc1`: the survival was inactive: 105%.

Take `CS(=O)(=O)N(CC(=O)NCCSCc1ccccc1)c1cc(C(F)(F)F)ccc1Cl`: the survival is inactive: 133%.

`O=C(Cn1cnc2onc(-c3ccc(F)cc3)c2c1=O)Nc1cccc(C(F)(F)F)c1`: the survival was inactive: 124%.

With `COc1ccc(NC(=O)CC2C(=O)N(c3ccccc3)C(=O)N2C2CCCCC2)cc1` (centres undefined), the survival was inactive: 70%.

Take `CCOC(=O)c1nnn(CC(=O)Nc2cc(C)cc(C)c2)c1C(=O)OCC`: the survival is inactive: 89%.

On to `COc1ccccc1CNC(=O)c1cc2cccc3c2n1CC(C)S3` (centres undefined), for which the survival was inactive: 124%.

For the compound `CCc1ccc(NC(=O)N2c3ccccc3Sc3ccccc32)cc1`, the survival is active: 1%.

For the compound `Cc1ccc(C)c(Cn2cnc3c(cnn3-c3ccc(F)cc3)c2=O)c1`, the survival was inactive: 77%.

Turning to `CCN(Cc1ccccc1)S(=O)(=O)c1ccc2c(c1)CCCN2C(C)=O`, the survival was inactive: 78%.

For the compound `C=CCn1c(SCC(O)Cn2c3ccccc3c3ccccc32)nnc1-c1ccco1` (centres undefined), the survival was inactive: 134%.

As to `Cn1nc(C(=O)NCc2ccc(F)cc2)c2c1-c1ccccc1SC2`, the survival was inactive: 70%.

Regarding `Cc1cc(-c2ccccc2)n2nc(-c3cccc(Br)c3)cc2n1`, the survival is inactive: 55%.

Take `CC1CCN(C(=O)CN2c3ccc(C(C)C)cc3-c3ccccc3S2(=O)=O)CC1`: the survival is inactive: 88%.

Consider `COc1nc(N(C)C)nc(N(C#N)CN2C(=O)c3ccccc3S2(=O)=O)n1`, for which the survival was inactive: 109%.

As to `Cc1ccc(-c2c(C(=O)NCc3ccc(F)cc3)oc(=O)c3ccccc23)cc1`, the survival is inactive: 76%.

Consider `C=CCNc1nc(NCCN2CCOCC2)nc(OC)n1`, for which the survival is inactive: 105%.

For `Cc1ccccc1NC(=O)Cn1c(=O)n(Cc2ccc3c(c2)OCO3)c(=O)c2ccc(C(=O)NC3CCCCC3)cc21`, the survival was inactive: 82%.

Regarding `CC(C)CN(CCNC(=O)c1cn(C)c2ccc(S(=O)(=O)N3CCOCC3)cc2c1=O)CC(C)C`, the survival is inactive: 82%.

As for `COc1ccc(CCCc2nnc(SCC(=O)Nc3ccc(F)cc3)o2)cc1C`, the survival was inactive: 74%.

Regarding `CSCCC(NS(=O)(=O)c1ccc2c(c1)oc(=O)n2C)C(=O)NCc1ccccc1` (centres undefined), the survival was inactive: 95%.

For the compound `Cc1ccc2cccc(NC(=O)c3ccc(-c4cccc(Cl)c4Cl)o3)c2n1`, the survival was inactive: 63%.

Consider `CC(C)N(C(=O)CSc1nnc(-c2ccco2)n1C)C(C)C`, for which the survival was inactive: 101%.

For the compound `Cc1cc(C)cc(NC(=O)c2oc3ccc4c(c3c2C)C(=O)CC(C)(C)O4)c1`, the survival is inactive: 89%.

As to `COc1ccc2c(c1)c1c(c(=O)n(Cc3ccccc3)c(=O)n1CC(=O)NCc1ccc(C)cc1)n2C`, the survival is inactive: 82%.

Take `CSc1ccc(C(=O)Nc2ccc(-c3nc4ccccc4s3)c(O)c2)cc1`: the survival was active: 0%.

Consider `CCC(=O)N1CCc2cc(S(=O)(=O)CCC(=O)N3CCN(c4cccc(Cl)c4)CC3)ccc21`, for which the survival is inactive: 69%.

Regarding `O=C(NCc1ccc(F)cc1)C1CCCCN1S(=O)(=O)c1ccc(F)cc1` (centres undefined), the survival is active: 0%.

As for `N=c1n(CCN2CCCCC2)c2ccccc2n1CC(O)COc1ccccc1` (centres undefined), the survival is inactive: 144%.

With `Cc1ccc(C)c(N2CCN(C(=O)c3ccc(Nc4nc5ccccc5n5nnnc45)cc3)CC2)c1`, the survival is inactive: 90%.

`COc1ccc(N2CCN(C(=O)CCC(=O)NNc3nc4ccccc4c4nc(C)nn34)CC2)cc1`: the survival is inactive: 90%.

On to `CCC(=O)N1CCN(C(=O)CC)C1c1ccccc1`, for which the survival was inactive: 99%.

On to `COc1cc(OC)c(NC(=O)Cn2c(=O)cc(C)c3c(C)nn(-c4ccc(C)cc4)c32)cc1Cl`, for which the survival was inactive: 152%.

As to `CSc1ccc(-c2nc3c(C)cccn3c2Nc2ccc3c(c2)OCCO3)cc1`, the survival is inactive: 84%.

For the compound `Cc1ccccc1NC(=O)C1C(c2cccs2)C(C#N)=C(SCC(N)=O)NC1(C)O` (centres undefined), the survival is inactive: 102%.

Consider `CCOC(=O)c1cc(C)n(CC2CCC(C(=O)Nc3ccc(C)cc3)CC2)c1C` (centres undefined), for which the survival was inactive: 88%.

Take `CCc1ccc(NC(=O)c2ccc3nc(C(C)C)oc3c2)cc1`: the survival was inactive: 66%.

As for `CCNC(=O)c1ccc(CSc2nc3cccnc3n2Cc2ccc(OC)cc2)cc1`, the survival is active: -3%.

`c1cncc(-c2noc(C3CCCCC3)n2)c1`: the survival is inactive: 103%.

Regarding `CCOC(=O)N1CCC2(CC1)OC(=O)C(C)=C2C(=O)NCc1ccc(C)cc1`, the survival is inactive: 65%.

As for `COC(=O)Cn1ccc2cc(S(=O)(=O)N3CCCCCC3)ccc21`, the survival is inactive: 75%.

As to `Clc1ccccc1CNC12CN3CN(CN(C3)C1)C2`, the survival is inactive: 115%.

Regarding `CCC1CCc2nc3sc(C(=O)Nc4ccc(C)cc4C)c(N)c3cc2C1` (centres undefined), the survival was inactive: 79%.

As to `Cn1c(SCC(N)=O)nnc1-c1ccc(S(=O)(=O)N2CCCC2)cc1`, the survival was inactive: 108%.

With `O=C(NCCc1csc(-c2cccc(F)c2)n1)c1ccccc1C(F)(F)F`, the survival was inactive: 70%.

As for `CCN(C(=O)CN1C(=O)COc2ccc(S(=O)(=O)N3CCOCC3)cc21)c1cccc(C)c1`, the survival was inactive: 100%.

As for `O=C(c1cn(-c2ccccc2)nc1-c1cccnc1)N1CCCCC1`, the survival is inactive: 107%.

As for `Cc1nn(CC(=O)N2CCC(C)CC2)c(=O)c2cc3occc3n12`, the survival was inactive: 81%.

For `O=C(NCC1CCCO1)c1ccc(S(=O)(=O)N2CCCCC2)cc1` (centres undefined), the survival was inactive: 108%.

In the case of `Cc1cccc(-c2nc(CN3CCCC(C(=O)NCc4ccc(Cl)cc4)C3)c(C)o2)c1` (centres undefined), the survival is active: 2%.

Regarding `COC(=O)c1ccc(NC(=O)Cn2c(-c3nonc3N)nc3ccccc32)cc1`, the survival was inactive: 157%.

Turning to `CCCc1cnc2c(c1SCC(=O)Nc1c(C)cc(C)cc1C)c(=O)n(C)c(=O)n2C`, the survival is inactive: 87%.

Take `CCc1nn(-c2ccccc2)c2nc(-c3ccc(O)cc3)c3cc(OC)c(OC)cc3c12`: the survival was inactive: 81%.

Consider `COc1cccc(NC(=O)N(Cc2c[nH]c3ccccc23)C2CCCCCC2)c1`, for which the survival is inactive: 63%.

As to `CN(C(=O)c1cc2c(Cl)nc3ccccc3c2s1)c1cccc(C(F)(F)F)c1`, the survival is inactive: 80%.

In the case of `CCn1c(C(=O)Nc2c(C)cccc2C)cc2sc(Cl)cc21`, the survival was inactive: 75%.

Regarding `COC(=O)C(NC(=O)c1ccccc1)=C1C=C(C)OC(C)=C1`, the survival is inactive: 108%.

As to `O=C(Cn1nc(-c2ccccc2)c2c(c1=O)CCCC2)Nc1ccc(F)c(Cl)c1`, the survival is inactive: 44%.

`COc1cccc(-c2noc(COc3ccc(C(C)(C)C)cc3)n2)c1`: the survival is inactive: 86%.

With `Cc1ccccc1NS(=O)(=O)c1ccc2[nH]cc(C(=O)NC3CCCCC3)c(=O)c2c1`, the survival was inactive: 80%.

For the compound `CC(C)/C=N/NC(=O)c1ccc2c(c1)NC(=O)C(C)(C)O2`, the survival was inactive: 108%.

Consider `CCn1c(=O)c2cc(C(=O)NC3CCC(C)CC3)sc2c2ccccc21` (centres undefined), for which the survival was inactive: 92%.

Take `CC1(C)c2ssc(=S)c2-c2ccccc2N1C(=O)CSC#N`: the survival is inactive: 98%.

Turning to `Cc1ccc(NC(=O)c2oc3ccc(S(=O)(=O)N4CCCCCC4)cc3c2C)c(C)c1`, the survival is inactive: 146%.

On to `COc1ccc(-n2c(C)nnc2SCc2nc(-c3ccc(OC)c(OC)c3)no2)cc1`, for which the survival was inactive: 87%.

The values are drawn from PubChem BioAssay AID463173 (ICCB-Longwood Screening Facility, Harvard Medical School, 2010).
